Test results published in the supplement of paper PMC11417369.
± gives the standard deviation of the averaged measurements. Some of the results follow.

test system: PfAP2-LT AP2 domain (GST-tagged); assay: gcPBM binding intensity (ln(normalized median fluorescence intensity)); higher = stronger DNA binding
In short: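 In this array assay, P. falciparum DNA-binding domains with a GST tag, expressed in E. coli, were applied for 1 h to primer-extended double-stranded 36-bp intergenic genomic probes and negative controls on an Agilent 4 × 180k array. Bound protein was visualised with Alexa488 anti-GST antibody at 488 nm. Binding intensity is the highest Masliner-normalised natural-log median intensity across replicate spots of either probe orientation.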

Sequence | gcPBM binding intensity (ln)
TCAACCAAAACATAAGCATGCAATATATTTTTATAC [TGCATGCA_site560] | 8.82 ± 0.41
TTTTATAATTTCTTCTGTACATATATATGAAAATAT [XGTACX_site74] | 8.54 ± 0.45
AAAAATAAACGACAGTGTACTAAATATTTAATTTTC [XGTACX_site3580] | 8.8 ± 0.59
TATTCTAAAGAAATTACACACATGCAATGAAAAAAA [CACACA_site6895] | 8.81 ± 0.45
CAGGGCAGGGGGAAGGGTACACATAAAAGAAAATAA [XGTACX_site172] | 9.02 ± 0.25
TATAAATATATATTTTGTACTTAATATAAATTTATA [XGTACX_site7996] | 8.38 ± 0.43
GGTTCATATCTTAACACACACATACATATTATAGAT [CACACA_site7392] | 9.33 ± 0.33
ATACAATTTATTTTAACACACGAATGAATTGATTAT [CACACA_site4160] | 8.73 ± 0.42
ATACAAATATACTTTTGTACGAAGAAATATATATAT [XGTACX_site3912] | 8.85 ± 0.43
ATAAAAAAAATAAAAAGTACAAAAAAAAAAAATGGA [XGTACX_site136] | 8.87 ± 0.73
TAAAGAAACTATTCAACACACGGTCTAATTATTACA [CACACA_site1064] | 8.71 ± 0.38
TATAAATATAGACACACACACACCAAAGCGTAGCGC [CACACA_site6179] | 9.77 ± 0.41
TATATATATTATAATACATGCGGTGATGAAAGTTAT [TGCATGCA_site924] | 9.07 ± 0.58
TATGAAGTACACAATACACACTAATTATATATAAAT [CACACA_site5444] | 9.11 ± 0.43
TTTTTAAAAAAACATACACACAAAAAAAAAAAAAAA [CACACA_site3935] | 8.59 ± 0.49
TATAATATATATATATTTATATATATCTTCCTAATC [GTGCAC_negctrl_site682] | 8.64 ± 0.49
TTTTTTTATATAGACACAAAAGAAAATTACATATAC [CACACA_negctrl_site235] | 8.24 ± 0.45
GATTTGTCTTACAGTGGTACACTTATATATATGTGA [XGTACX_site2899] | 8.9 ± 0.39
AATATTTATTTTATATGTACATAATTTATTTTTAAT [XGTACX_site776] | 8.73 ± 0.43
AAAAAAAAAAAAAAAACACACAAGGATCATATATAT [CACACA_site3812] | 8.95 ± 0.41
AATAAAAATATATCCACACACATATATATATCTGTA [CACACA_site4481] | 9.37 ± 0.31
TATATTATATTTTTATGTACATATATGTTTTTTTTT [XGTACX_site8239] | 8.93 ± 0.55
ATTTTATCAAGAGGAAGTACATTACCCCATGAAAAA [XGTACX_site8295] | 8.57 ± 0.32
AATGGAGTTTATAAGTATAAACGAGGGATACCTAAA [XGTACX_negctrl_site483] | 8.81 ± 0.45
